Source: the supplement of paper PMC10320760
The data scatter; read single values as rough.

B1: Ydj1; a variant is named by its letters at X, in order (parent)
chain: MVKETKFYDILGVPVTATDVEIKKAYRKCALKYHPDKNPSEEAAEKFKEASAAYEILSDPEKRDIYDQFGEDGLSGAGGAGGFPGGGFGFGDDIFSQFFGAGGAQRPRGPQRGKDIKHEISASLEELYKGRTAKLALNKQILCKECEGRGGKKGAVKKCTSCNGQGIKFVTRQMGPMIQRFQTECDVCHGTGDIIDPKDRCKSCNGKKVENERKILEVHVEPGMKDGQRIVFKGEADQAPDVIPGDVVFIVSERPHKSFKRDGDDLVYEAEIDLLTAIAGGEFALEHVSGDWLKVGIVPGEVIAPGMRKVIEGKGMPIPKYGGYGNLIIKFTIKFPENHFTSEENLKKLEEILPPRIVPAIPKKATVDECVLADFDPAKYNRTRASRGGANYDSDEEEQGGEGVQCXXX

Variants of: B1
Assay: enrichment factor, frequency at 37 °C / frequency at 25 °C (thermotolerance selection) (ratio); higher = more growth at 37 °C, higher likelihood of farnesylation
Conditions: with Saccharomyces cerevisiae ydj1Δ (yWS304); selective temperature 37 °C; reference temperature 25 °C

Row | Variant | enrichment factor
1 | GVS | 1.48
2 | GVW | 1.24
3 | GVR | 0.191
4 | GVP | 0.264
5 | GVY | 2.2
6 | GVV | 1.55
7 | GVQ | 1.34
8 | GVN | 1.44
9 | GVT | 2.38
10 | IVT | 1.83
11 | IVN | 2.15
12 | IVW | 2.19
13 | IVY | 1.57
14 | IVP | 0.102
15 | IVR | 1.66
16 | IVQ | 1.45
17 | IVV | 1.65
18 | IVS | 0.515
19 | FVV | 1.16
20 | FVR | 0.219
21 | FVS | 0.965
22 | FVN | 1.31
23 | FVW | 1.92
24 | FVY | 1.27

Row | Variant | enrichment factor
25 | FVT | 1.62
26 | FVQ | 1.29
27 | FVP | 1.83
28 | LVT | 3.03
29 | LVR | 0.902
30 | LVN | 3.06
31 | LVP | 0.26
32 | LVS | 2.62
33 | LVQ | 2.52
34 | LVV | 0.914
35 | LVW | 1.32
36 | LVY | 3.43
37 | AVN | 1.87
38 | AVY | 1.61
39 | AVR | 1.29
40 | AVW | 0.579
41 | AVV | 1.48
42 | AVP | 0.16
43 | AVQ | 1.88
44 | AVS | 1.04
45 | AVT | 1.37
46 | PVP | 0.12
47 | PVT | 1.59
48 | PVV | 1.19

Row | Variant | enrichment factor
49 | PVR | 0.388
50 | PVQ | 0.945
51 | PVW | 0.573
52 | PVN | 1.47
53 | PVS | 1.53
54 | CVQ | 1.14
55 | CVT | 0.903
56 | CVN | 1.18
57 | CVV | 1.01
58 | CVW | 0.478
59 | CVS | 0.612
60 | CVR | 0.755
61 | CVP | 1.51
62 | NVR | 0.591
63 | NVN | 2.13
64 | NVQ | 3.42
65 | NVS | 1.74
66 | NVV | 1.14
67 | NVP | 0.182
68 | NVT | 2.83
69 | NVW | 0.689
70 | EVR | 1.05
71 | EVY | 1.29
72 | EVW | 1.59

Row | Variant | enrichment factor
73 | EVS | 1.75
74 | EVV | 2.06
75 | EVT | 2.26
76 | EVP | 0.151
77 | EVQ | 2.16
78 | SVV | 0.927
79 | SVQ | 2.13
80 | SVW | 1.62
81 | SVN | 2.22
82 | SVS | 1.34
83 | SVT | 1.2
84 | SVR | 0.73
85 | SVP | 0.125
86 | KVQ | 4.37
87 | KVN | 3.31
88 | KVT | 2.36
89 | KVR | 0.145
90 | KVP | 0.105
91 | KVY | 2.74
92 | KVV | 1.5
93 | KVS | 2.67
94 | KVW | 1.29
95 | RVW | 1.9
96 | RVR | 0.255

Row | Variant | enrichment factor
97 | RVV | 1.27
98 | RVQ | 2.35
99 | RVN | 1.71
100 | RVS | 0.722
101 | RVP | 0.13
102 | RVT | 1.25
103 | TVS | 0.97
104 | TVW | 0.869
105 | TVN | 4.05
106 | TVQ | 2.26
107 | TVR | 1.33
108 | TVV | 0.965
109 | TVT | 1.01
110 | TVP | 0.0993
111 | WVW | 1.26
112 | WVV | 2.7
113 | WVP | 2.09
114 | WVT | 3.19
115 | WVS | 1.74
116 | WVQ | 2.06
117 | WVR | 0.251
118 | WVN | 1.16
119 | VVQ | 0.935
120 | VVS | 0.489

Row | Variant | enrichment factor
121 | VVP | 0.101
122 | VVR | 1.27
123 | VVN | 1.88
124 | VVV | 0.865
125 | VVW | 0.869
126 | VVT | 0.736
127 | DVT | 1.98
128 | DVR | 0.12
129 | DVQ | 2.3
130 | DVV | 1.23
131 | DVW | 1.41
132 | DVY | 1.76
133 | DVP | 0.0847
134 | DVS | 2.18
135 | YVN | 1.27
136 | YVW | 2.4
137 | YVQ | 3.99
138 | YVR | 0.157
139 | YVT | 1.08
140 | YVV | 2.12
141 | YVP | 1.85
142 | YVS | 1.7
143 | MVW | 1.16
144 | MVT | 1.98

Row | Variant | enrichment factor
145 | MVV | 1.66
146 | MVN | 1.95
147 | MVQ | 1.61
148 | MVP | 0.138
149 | MVR | 0.381
150 | MVS | 1.52
151 | HVW | 2.9
152 | HVP | 1.28
153 | HVQ | 3.1
154 | HVS | 2.21
155 | HVT | 2.83
156 | HVN | 1.88
157 | HVY | 2.08
158 | HVR | 0.251
159 | HVV | 1.16
160 | QVR | 1.13
161 | QVW | 2.37
162 | QVT | 2.5
163 | QVP | 0.144
164 | QVS | 4.7
165 | QVV | 2.65
166 | QVQ | 3.08
167 | QVN | 4.22
